The whole screen tested about 310,000 compounds, of which about 2,200 (0.71%) showed an effect of 50% or more. Effects have a minus sign here. Some of the results follow.
target: human ether-à-go-go-related gene (hERG) potassium channel (human, UniProt Q12809); test: primary screen, population patch clamp on CHO cells stably expressing hERG
Sequence (Q12809 whole entry, looked up): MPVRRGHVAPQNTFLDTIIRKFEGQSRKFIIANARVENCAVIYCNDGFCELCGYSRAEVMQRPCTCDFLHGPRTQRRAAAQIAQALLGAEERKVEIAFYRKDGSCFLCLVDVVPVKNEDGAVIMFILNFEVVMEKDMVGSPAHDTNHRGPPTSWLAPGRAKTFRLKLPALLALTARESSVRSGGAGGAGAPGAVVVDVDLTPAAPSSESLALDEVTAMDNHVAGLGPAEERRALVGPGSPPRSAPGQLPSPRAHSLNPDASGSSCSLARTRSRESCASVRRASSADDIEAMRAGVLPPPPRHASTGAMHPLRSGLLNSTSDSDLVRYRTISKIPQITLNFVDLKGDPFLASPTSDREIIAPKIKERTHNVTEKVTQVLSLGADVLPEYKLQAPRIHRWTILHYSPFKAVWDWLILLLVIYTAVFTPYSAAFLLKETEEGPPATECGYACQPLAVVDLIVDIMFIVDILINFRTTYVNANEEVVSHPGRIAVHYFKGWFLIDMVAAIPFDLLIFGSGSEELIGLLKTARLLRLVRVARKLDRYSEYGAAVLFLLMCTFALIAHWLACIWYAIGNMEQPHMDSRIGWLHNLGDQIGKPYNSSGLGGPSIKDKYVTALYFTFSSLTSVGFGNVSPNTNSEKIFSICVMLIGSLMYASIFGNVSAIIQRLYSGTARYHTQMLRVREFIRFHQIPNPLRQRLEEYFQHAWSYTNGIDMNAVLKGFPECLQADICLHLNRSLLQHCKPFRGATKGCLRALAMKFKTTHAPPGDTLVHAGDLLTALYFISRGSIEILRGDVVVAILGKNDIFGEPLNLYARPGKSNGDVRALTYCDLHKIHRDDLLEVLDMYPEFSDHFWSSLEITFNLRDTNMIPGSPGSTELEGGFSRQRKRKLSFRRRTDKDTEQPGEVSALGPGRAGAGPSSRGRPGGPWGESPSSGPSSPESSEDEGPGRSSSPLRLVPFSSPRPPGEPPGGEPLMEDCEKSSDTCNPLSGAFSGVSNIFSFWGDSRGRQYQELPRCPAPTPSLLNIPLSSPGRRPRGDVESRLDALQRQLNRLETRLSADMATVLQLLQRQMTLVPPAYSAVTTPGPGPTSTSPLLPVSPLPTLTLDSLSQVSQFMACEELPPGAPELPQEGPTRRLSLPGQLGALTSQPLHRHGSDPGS

Structure (SMILES)	hERG current change (%, negative = inhibition) at 1uM [%]
CC1CCN(C(=O)c2ccc(SCc3ccccc3F)c([N+](=O)[O-])c2)CC1	10.7
CCCN1C2=C(C(=O)CC(C)(C)C2)C(c2ccc(F)cc2)C2=C1c1ccccc1C2=O (stereo not shown)	-0.904
CCCOc1ccc(N2C(=O)CC(NCc3cccnc3)C2=O)cc1 (stereo not shown)	6.06
CC(=O)Nc1ccc(Cc2ccncc2)cc1	9.37
C=CCC(=O)N1CCCC(C(=O)c2ccc(Cl)cc2)C1 (stereo not shown)	12.4
O=C(COC(=O)C1(c2ccccc2)CC1)N1CCN(c2ccc(F)cc2)CC1	-17.6
CCc1nc2oc3ccccc3c(=O)c2c(=O)n1CCOC	5.93
O=c1ccc(-c2ccc(S(=O)(=O)NCc3cccc(Br)c3)s2)n[nH]1	2.87
Cc1noc(C)c1C(=O)OCC(=O)c1ccc[nH]1	7.61
COc1cccc2c1C(=O)c1c(O)c3c(c(O)c1C2=O)C[C@@](O)(C(=O)CO)C[C@@H]3O[C@H]1C[C@H](N)[C@H](O)[C@H](C)O1.Cl	13.2
COc1ccc(/C=C(/NC(=O)c2ccc(OC)c(OC)c2)C(=O)NCCc2c[nH]c3ccccc23)cc1	7.12
CC(Cc1ccccc1)NCc1ccccc1O.Cl (stereo not shown)	14.8
Cc1ccc(C(C)NC(=O)CSc2ccc(S(=O)(=O)N3CCOCC3)cn2)cc1C (stereo not shown)	5.8
CN(C)CCCCOc1ccccc1F.O=C(O)C(=O)O	6.04
Cc1ccc(C)c(N2CCN(C(=O)c3ccc4c(=O)n5c(nc4c3)CCCCC5)CC2)c1	1.76
COc1ccc(CC(=O)Nc2cccc(Cl)c2C)cc1S(=O)(=O)N1CCOCC1	6.04
CN(C)c1ncc(S(=O)(=O)c2ccccc2)c(-c2ccc(Cl)cc2Cl)n1	3.66
COc1ccc(N2C(=O)CC2(C#N)c2ccc(OCc3ccccc3)cc2)cc1 (stereo not shown)	-2.34
O=C(Nc1ccccc1Oc1ccccc1)c1cccc([N+](=O)[O-])c1	0.957
COc1ccc(N(C(=O)c2snc(C(N)=O)c2N)C(C(=O)NC2CCCC2)c2ccc(OC)c(OC)c2)cc1 (stereo not shown)	12.4
COc1ccc(C(=O)N/N=C(\C)CC(=O)Nc2ccc3c(c2)OCCO3)c(OC)c1	12.8
O=C(CN1CCOCC1)Nc1ccccc1-c1ccccc1	8.59

Structure (SMILES)	hERG current change (%, negative = inhibition) at 1uM [%]
Cc1nn(Cc2ccc(F)cc2)c(Cl)c1/C=N/NC(=O)c1cccnc1	-5.67
Cc1nc2ccccc2n1C1CCN(C(=O)Nc2ccccc2)CC1	-5.38
CC(=O)[C@@H]1[C@@H](C)N(Cc2ccccc2)C(=O)N[C@H]1c1cccc(C(F)(F)F)c1	11.1
COCCn1c(SCc2nc3scc(-c4ccc(Cl)cc4)c3c(=O)[nH]2)nnc1-c1cccc(C)c1	3.21
Cc1ccc(C)c(-n2cc(CN3CCCN(C=O)CC3)c(-c3ccccc3)n2)c1	7.15
CC(=O)Nc1ccc(S(=O)(=O)N(C)CCOCc2ccccc2)cc1	5.28
Cc1ccc(O)c(NC(=O)c2cccc(S(=O)(=O)N3CCCCC3)c2)c1	-2.57
Cc1nn(C)cc1/C=N/NC(=S)Nc1ccccc1	-3.63
CCOc1ccc(NC(=O)CCc2c(C)noc2C)cc1OC	4.71
Cl.Nc1ccc2nc(Cc3ccccc3)[nH]c2c1	11
Cc1ccc(S(=O)(=O)NCc2ccccc2)cc1C(=O)N1CCCC(C(F)(F)F)C1 (stereo not shown)	3.5
CCn1nnc(-c2ccccc2NS(=O)(=O)c2ccc(S(=O)(=O)N3CCCCCC3)cc2)n1	7.18
Cc1ccc(N2CC(C(=O)N3CCC4(CC3)CC(=O)c3ccccc3O4)CC2=O)cc1 (stereo not shown)	-47.4
Clc1ccc(Sc2cnc3ccccc3n2)cc1	9.45
COc1ccc(NC(=O)[C@@H](NC(=O)N2C[C@H]3C[C@@H](C2)c2cccc(=O)n2C3)C(C)C)cc1OC	11
Cc1cc(S(=O)(=O)NCC(=O)O)ccc1F	-4.76
O=C(N/N=C\c1cc(Cl)ccc1O)c1ccc(S(=O)(=O)N2CCCCC2)cc1	0.646
CC(=O)Nc1ccc(S(=O)(=O)NCCNS(=O)(=O)c2ccc(NC(C)=O)cc2)cc1	11
CCOC(=O)N1CCN(C(=O)CN(C)S(=O)(=O)c2ccc(Cl)cc2)CC1	14.8
O=C(COc1ccc(S(=O)(=O)N2CCOCC2)cc1)Nc1ccccc1F	-0.935
Cc1ccc(NC(=O)c2cc(-c3ccccc3)n[nH]2)cc1	12.5
COc1ccc(CN(Cc2ccc(C(=O)O)cc2)C(=S)Nc2cc(C)cc(C)c2)cc1OC	10.8

Structure (SMILES)	hERG current change (%, negative = inhibition) at 1uM [%]
COCCN(CC1CCCN(C2Cc3ccccc3C2)C1)C(=O)CCC(N)=O (stereo not shown)	-70.8
O=C(O)CCNC(=O)c1cncc(Br)c1	7.47
COc1cc(Cl)c(C)cc1NC(=O)COC(=O)c1cc(SC)ccc1Cl	13.2
CCOc1ccc(N(CC(=O)O)S(=O)(=O)c2ccc(F)cc2)cc1	8.33
CC1CC/C(=N/Nc2ccccc2)C(=O)N1 (stereo not shown)	2.19
CCOC(=O)c1c(C)[nH]c(C)c1S(=O)(=O)NCc1cc(C)ccc1C	3.32
Cc1ccc(S(=O)(=O)NNC(=O)CCCCC(=O)NNS(=O)(=O)c2ccc(C)cc2)cc1	0.743
CC(NC(=O)c1ccccc1)C(=O)N/N=C/c1ccccc1 (stereo not shown)	9.43
COc1c([N+](=O)[O-])c(=O)n(-c2ccccc2)c2ccccc12	6.54
OCC1CCN(Cc2cn(Cc3ccccc3)nc2-c2cc3ccccc3o2)CC1	-37.2
Cc1nn(-c2ccccc2)c(C)c1C(=O)OCC(=O)c1c(N)n(CC(C)C)c(=O)n(C)c1=O	16.1
CC1=C(C(=O)Nc2ccccc2)C(c2cccnc2)n2nc(-c3cccnc3)nc2N1 (stereo not shown)	-4.48
O=c1[nH]c(SCc2cccc(F)c2)nc2ccccc12	9.02
Cn1c(=O)c2c(nc(SCC(=O)c3cccs3)n2Cc2ccc(F)cc2)n(C)c1=O	-2.72
CCOC(=O)Cc1cc(=O)n2[nH]c(C)c(-c3ccc(OC)cc3)c2n1	-3.61
Cc1ccc(S(=O)(=O)Nc2cccc3c2CCCC3)cc1	15.1
Cn1c(=O)c2c(nc(OCc3ccccc3)n2C)n(C)c1=O	14.1
CCOC(=O)N1CCN(C(=O)CNC(=O)c2nn(-c3ccc(OC)c(Cl)c3)c(=O)c3ccccc23)CC1	9.65
N#Cc1ccc(COC(=O)c2ccc3c(=O)[nH]c(CN4CCOCC4)nc3c2)cc1	-8.59
Cc1cc(-c2ccccc2)nc(N(C)NC(=O)C2CC2)c1S(C)(=O)=O	9.67
O=C(CSC(=S)N1CCCCC1)c1c(F)cccc1F	21.7
CCCNC(=O)NC(=O)COc1ccc2oc3ccccc3c2c1	6.28

Structure (SMILES)	hERG current change (%, negative = inhibition) at 1uM [%]
Br.CC(=O)c1sc(N/N=C2\CC3CC2C(C)C3(C)C)nc1C (stereo not shown)	11.8
COc1ccc(C(=O)Nc2cccc3c2CCCC3)cc1OC	13.5
COc1c(Cl)cc(Br)c(OC)c1C(=O)NC(=O)Nc1nc(C)cc(C)n1	17.7
Cc1ccc(-n2nnc3c(=O)n(CC(N)=O)cnc32)cc1	12.2
COc1cccc(CN2C(=O)C(C)N(C(=O)c3ccccc3)c3ccccc32)c1 (stereo not shown)	12.9
CC1(c2ccccc2)NC(=O)N(CC(=O)N2CCN(S(=O)(=O)c3ccccc3[N+](=O)[O-])CC2)C1=O (stereo not shown)	17.7
Cc1onc(-c2c(Cl)cccc2Cl)c1C(=O)NC(=S)Nc1sc2c(c1C(N)=O)CCC(C)C2 (stereo not shown)	7.34
Cc1ccc(-c2csc3ncnc(N4CCN(C(=O)c5ccco5)CC4)c23)cc1	-22.8
O=C(COc1ccc(Br)cc1)N(Cc1cccs1)C1CCS(=O)(=O)C1 (stereo not shown)	5.76
Cc1nn(-c2ccc(C(=O)Nc3nnc(C4CC4)s3)cc2)c(C)c1Cl	7.1
Cc1nc2nc(C)c(NS(=O)(=O)c3cccs3)c(=O)n2[nH]1	11.8
COc1ccc(-c2nnn(CCC(=O)O)n2)cc1	6.25
O=C(O)CSCC(=O)N(c1ccccc1)c1ccccc1	17.8
Cc1cc(C)n(-c2nc3ccccc3nc2N2CCOCC2)n1	15.1
COc1ccc(N2CCN(C(=O)c3ccc4c(c3)NC(=O)C(CSCc3ccc(C)cc3)N4)CC2)cc1 (stereo not shown)	14
CCCc1ccc(C(=O)NNc2cc(Cl)ccc2Cl)cc1	7.35
Cc1cc(C(=O)NNC(=O)Nc2cccc(C(F)(F)F)c2)no1	14.9
N#Cc1nc(-c2ccc(F)cc2)oc1N1CCCC1	-0.732
NC(=O)COC(=O)c1c2c(nc3ccccc13)CCCCC2	2.21

Source: publication PMC4336329 (PLoS ONE, 2015)
